# From PMC9911399, “Two distinct binding modes provide the RNA-binding protein RbFox with extraordinary sequence specificity”
# Positions count from the first letter of the chain named. The list shows a part of the results.
# T1: RBFOX1 RRM RbFoxmut (Fox-RRM*) (Homo sapiens, UniProt Q9NWB1 109-208, R118D;E147R;N151S;E152T)
# T1 sequence: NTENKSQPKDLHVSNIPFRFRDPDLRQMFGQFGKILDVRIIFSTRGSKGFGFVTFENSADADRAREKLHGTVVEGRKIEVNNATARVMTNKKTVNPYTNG
# B1: GACUACC (DNA:RNA)
# RNA: GGGAGACCGGAAUUCAGAUUGUCCGACUACCUUAAAUCCCGUCGUAGCCACCA
# DNA 1: CAATCTGAATTCCGGTCTCCC
# DNA 2: TGGTGGCTACGACGGGATT
# B2: CAGAUUC (DNA:RNA)
# RNA: B1 RNA with G25C, C27G, U28A, A29U, C30U
# DNA 1: CAATCTGAATTCCGGTCTCCC
# DNA 2: TGGTGGCTACGACGGGATT
# B3: CACUCUU (DNA:RNA)
# RNA: B1 RNA with G25C, A29C, C30U, C31U
# DNA 1: CAATCTGAATTCCGGTCTCCC
# DNA 2: TGGTGGCTACGACGGGATT
# B4: AGGGCGC (DNA:RNA)
# RNA: B1 RNA with G25A, A26G, C27G, U28G, A29C, C30G
# DNA 1: CAATCTGAATTCCGGTCTCCC
# DNA 2: TGGTGGCTACGACGGGATT
# B5: CCGCCGC (DNA:RNA)
# RNA: B1 RNA with G25C, A26C, C27G, U28C, A29C, C30G
# DNA 1: CAATCTGAATTCCGGTCTCCC
# DNA 2: TGGTGGCTACGACGGGATT
# B6: GUGAGUU (DNA:RNA)
# RNA: B1 RNA with A26U, C27G, U28A, A29G, C30U, C31U
# DNA 1: CAATCTGAATTCCGGTCTCCC
# DNA 2: TGGTGGCTACGACGGGATT
# B7: CCAACUA (DNA:RNA)
# RNA: GGGAGACCGGAAUUCAGAUUGUCCCCAACUAUUAAAUCCCGUCGUAGCCACCA
# DNA 1: CAATCTGAATTCCGGTCTCCC
# DNA 2: TGGTGGCTACGACGGGATT
# B8: AUCGUGU (DNA:RNA)
# RNA: B1 RNA with G25A, A26U, U28G, A29U, C30G, C31U
# DNA 1: CAATCTGAATTCCGGTCTCCC
# DNA 2: TGGTGGCTACGACGGGATT
# B9: AACUAGA (DNA:RNA)
# RNA: B1 RNA with G25A, C30G, C31A
# DNA 1: CAATCTGAATTCCGGTCTCCC
# DNA 2: TGGTGGCTACGACGGGATT
# B10: UCUAUUU (DNA:RNA)
# RNA: B7 RNA with C25U, A27U, C29U, A31U
# DNA 1: CAATCTGAATTCCGGTCTCCC
# DNA 2: TGGTGGCTACGACGGGATT
# B11: CACUCAG (DNA:RNA)
# RNA: B1 RNA with G25C, A29C, C30A, C31G
# DNA 1: CAATCTGAATTCCGGTCTCCC
# DNA 2: TGGTGGCTACGACGGGATT
# B12: GUCCGGC (DNA:RNA)
# RNA: B1 RNA with A26U, U28C, A29G, C30G
# DNA 1: CAATCTGAATTCCGGTCTCCC
# DNA 2: TGGTGGCTACGACGGGATT
# B13: ACCAAGC (DNA:RNA)
# RNA: B1 RNA with G25A, A26C, U28A, C30G
# DNA 1: CAATCTGAATTCCGGTCTCCC
# DNA 2: TGGTGGCTACGACGGGATT
# B14: UAAAUGU (DNA:RNA)
# RNA: B7 RNA with C25U, C26A, C29U, U30G, A31U
# DNA 1: CAATCTGAATTCCGGTCTCCC
# DNA 2: TGGTGGCTACGACGGGATT
# B15: CGCAAGC (DNA:RNA)
# RNA: B1 RNA with G25C, A26G, U28A, C30G
# DNA 1: CAATCTGAATTCCGGTCTCCC
# DNA 2: TGGTGGCTACGACGGGATT
# B16: CAAAGGU (DNA:RNA)
# RNA: B7 RNA with C26A, C29G, U30G, A31U
# DNA 1: CAATCTGAATTCCGGTCTCCC
# DNA 2: TGGTGGCTACGACGGGATT
# B17: ACGGGAU (DNA:RNA)
# RNA: B7 RNA with C25A, A27G, A28G, C29G, U30A, A31U
# DNA 1: CAATCTGAATTCCGGTCTCCC
# DNA 2: TGGTGGCTACGACGGGATT
# B18: UGGAUCG (DNA:RNA)
# RNA: B7 RNA with C25U, C26G, A27G, C29U, U30C, A31G
# DNA 1: CAATCTGAATTCCGGTCTCCC
# DNA 2: TGGTGGCTACGACGGGATT
# B19: ACCAGCA (DNA:RNA)
# RNA: B7 RNA with C25A, A27C, C29G, U30C
# DNA 1: CAATCTGAATTCCGGTCTCCC
# DNA 2: TGGTGGCTACGACGGGATT
# B20: UGGUCUA (DNA:RNA)
# RNA: B7 RNA with C25U, C26G, A27G, A28U
# DNA 1: CAATCTGAATTCCGGTCTCCC
# DNA 2: TGGTGGCTACGACGGGATT
# B21: CUCCAGC (DNA:RNA)
# RNA: B1 RNA with G25C, A26U, U28C, C30G
# DNA 1: CAATCTGAATTCCGGTCTCCC
# DNA 2: TGGTGGCTACGACGGGATT
# B22: AUCGCCC (DNA:RNA)
# RNA: B1 RNA with G25A, A26U, U28G, A29C
# DNA 1: CAATCTGAATTCCGGTCTCCC
# DNA 2: TGGTGGCTACGACGGGATT
# B23: CGAUAAC (DNA:RNA)
# RNA: B1 RNA with G25C, A26G, C27A, C30A
# DNA 1: CAATCTGAATTCCGGTCTCCC
# DNA 2: TGGTGGCTACGACGGGATT
# B24: CACACGA (DNA:RNA)
# RNA: B7 RNA with C26A, A27C, U30G
# DNA 1: CAATCTGAATTCCGGTCTCCC
# DNA 2: TGGTGGCTACGACGGGATT
# B25: UGUCACU (DNA:RNA)
# RNA: B1 RNA with G25U, A26G, C27U, U28C, C31U
# DNA 1: CAATCTGAATTCCGGTCTCCC
# DNA 2: TGGTGGCTACGACGGGATT
# B26: AAUCAGC (DNA:RNA)
# RNA: B1 RNA with G25A, C27U, U28C, C30G
# DNA 1: CAATCTGAATTCCGGTCTCCC
# DNA 2: TGGTGGCTACGACGGGATT
# B27: CGAAGAC (DNA:RNA)
# RNA: B7 RNA with C26G, C29G, U30A, A31C
# DNA 1: CAATCTGAATTCCGGTCTCCC
# DNA 2: TGGTGGCTACGACGGGATT
# B28: UAGACGG (DNA:RNA)
# RNA: B7 RNA with C25U, C26A, A27G, U30G, A31G
# DNA 1: CAATCTGAATTCCGGTCTCCC
# DNA 2: TGGTGGCTACGACGGGATT
# B29: GUUCGCU (DNA:RNA)
# RNA: B1 RNA with A26U, C27U, U28C, A29G, C31U
# DNA 1: CAATCTGAATTCCGGTCTCCC
# DNA 2: TGGTGGCTACGACGGGATT
# B30: UUUGCUC (DNA:RNA)
# RNA: B7 RNA with C25U, C26U, A27U, A28G, A31C
# DNA 1: CAATCTGAATTCCGGTCTCCC
# DNA 2: TGGTGGCTACGACGGGATT
# B31: GAGCCUA (DNA:RNA)
# RNA: B7 RNA with C25G, C26A, A27G, A28C
# DNA 1: CAATCTGAATTCCGGTCTCCC
# DNA 2: TGGTGGCTACGACGGGATT
# Molecular target: T1, RBFOX1 RRM RbFoxmut (Fox-RRM*)
# Test: EMSA; HiTS-Eq, 1 nM pool, 10 min; buffer printed only for the single-RNA assays: 10 mM Tris pH 7.5, 150 mM NaCl, 3.4 mM EDTA, 0.001% NP-40, 30 C
# Settings: tags: His6 N-terminal (pET28a); label: 5' 32P
# Summary of the method: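 These values rest on relative association constants, computed from read-count changes of each RNA species versus the control reaction and normalised to the cognate motif. Reads came from free RNA recovered by 8% native PAGE after purified RbFox RRM (wild type or mutant) at increasing concentrations was equilibrated for 10 min in 50 µL with 1 nM of a 5′-radiolabelled pool with 7 randomized nucleotides and DNA-annealed flanks.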
row,Binder,binding signal
1,B1,0.0415 KA relative to UGCAUGU
2,B2,0.115 KA relative to UGCAUGU
3,B3,0.0754 KA relative to UGCAUGU
4,B4,0.0987 KA relative to UGCAUGU
5,B5,0.075 KA relative to UGCAUGU
6,B6,0.113 KA relative to UGCAUGU
7,B7,0.0921 KA relative to UGCAUGU
8,B8,0.177 KA relative to UGCAUGU
9,B9,0.0999 KA relative to UGCAUGU
10,B10,0.0899 KA relative to UGCAUGU
11,B11,0.108 KA relative to UGCAUGU
12,B12,0.116 KA relative to UGCAUGU
13,B13,0.0576 KA relative to UGCAUGU
14,B14,0.0741 KA relative to UGCAUGU
15,B15,0.0714 KA relative to UGCAUGU
16,B16,0.0691 KA relative to UGCAUGU

row,Binder,binding signal
1,B17,0.105 KA relative to UGCAUGU
2,B18,0.597 KA relative to UGCAUGU
3,B19,0.121 KA relative to UGCAUGU
4,B20,0.122 KA relative to UGCAUGU
5,B21,0.114 KA relative to UGCAUGU
6,B22,0.0561 KA relative to UGCAUGU
7,B23,0.0716 KA relative to UGCAUGU
8,B24,0.0771 KA relative to UGCAUGU
9,B25,0.0703 KA relative to UGCAUGU
10,B26,0.0705 KA relative to UGCAUGU
11,B27,0.102 KA relative to UGCAUGU
12,B28,0.0799 KA relative to UGCAUGU
13,B29,0.107 KA relative to UGCAUGU
14,B30,0.0836 KA relative to UGCAUGU
15,B31,0.0827 KA relative to UGCAUGU
